Experimental data published in the DeepSol protein solubility set.

assay: soluble on expression in E. coli; label from the status in PepcDB or PDB records

Row | Sequence | soluble on expression in E. coli
1 | MASSTSLPAPGSRPKKPLGKMADWFRQTLLKKPKKRPNSPESTSSDASQPTSQDSPLPPSLSSVTSPSLPPTHASDSGSSRWSKDYDVCVCHSEEDLVAAQDLVSYLEGSTASLRCFLQLRDATPGGAIVSELCQALSSSHCRVLLITPGFLQDPWCKYQMLQALTEAPGAEGCTIPLLSGLSRAAYPPELRFMYYVDGRGPDGGFRQVKEAVMRYLQTLSLEHHHHHH | not soluble
2 | MIFSVLCSDSRRLNALHALISAGFTMDFKAIQALTANDMAKVNETIHAQLNSDVSLINQLGFYIISGGGKRLRPLLAVLSAKALGYQGSHHTTAAAFIEFIHTATLLHDDVVDESDLRRGKATANAAFGNAASVLVGDFIYTRSFQMMTELGSMKILKLMSDAVNVIAEGEVQQLMNCNDPDTTEASYMQVIYSKTARLFEAATQIGAILCDASPEVELAMQNYGKYLGTAFQLIDDVMDYTSDGDEMGKNVGDDLAEGKPTLPLLYAMQHGNPEQAAMIREAIEKANGMSRLNEILAAMEQTGSLQYTIEKALHEADKAIAELAILPESEYKQALITLAHMAVNRSK | not soluble
3 | MSLTNVSGVDFQLRSVPLLSRVGADRADRLRTDMEAAAAGWPGAALLRVDSRNRVLVANGRVLLGAAIELADKPPPEAVFLGRVEGGRHVWAVRAALQPIADPDIPAEAVDLRGLGRIMDDTSSQLVSSASALLNWHDNARFSALDGAPTKPARAGWSRVNPITGHEEFPRIDPAVICLVHDGADRAVLARQAAWPERMFSLLAGFVEAGESFEVCVAREIREEIGLTVRDVRYLGSQQWPFPRSLMVGFHALGDPDEEFSFSDGEIAEAAWFTRDEVRAALAAGDWSSASESKLLLPGSISIARVIIESWAACEEGHHHHHH | not soluble
